From PMC4336329 (PLoS ONE, 2015)
About 2,200 (0.71%) of roughly 310,000 compounds showed an effect of 50% or more. The effect is printed as a negative number. Some of the results follow.

target: human ether-à-go-go-related gene (hERG) potassium channel (human, UniProt Q12809); experiment: primary screen, population patch clamp on CHO cells stably expressing hERG
Sequence (Q12809 whole entry, looked up): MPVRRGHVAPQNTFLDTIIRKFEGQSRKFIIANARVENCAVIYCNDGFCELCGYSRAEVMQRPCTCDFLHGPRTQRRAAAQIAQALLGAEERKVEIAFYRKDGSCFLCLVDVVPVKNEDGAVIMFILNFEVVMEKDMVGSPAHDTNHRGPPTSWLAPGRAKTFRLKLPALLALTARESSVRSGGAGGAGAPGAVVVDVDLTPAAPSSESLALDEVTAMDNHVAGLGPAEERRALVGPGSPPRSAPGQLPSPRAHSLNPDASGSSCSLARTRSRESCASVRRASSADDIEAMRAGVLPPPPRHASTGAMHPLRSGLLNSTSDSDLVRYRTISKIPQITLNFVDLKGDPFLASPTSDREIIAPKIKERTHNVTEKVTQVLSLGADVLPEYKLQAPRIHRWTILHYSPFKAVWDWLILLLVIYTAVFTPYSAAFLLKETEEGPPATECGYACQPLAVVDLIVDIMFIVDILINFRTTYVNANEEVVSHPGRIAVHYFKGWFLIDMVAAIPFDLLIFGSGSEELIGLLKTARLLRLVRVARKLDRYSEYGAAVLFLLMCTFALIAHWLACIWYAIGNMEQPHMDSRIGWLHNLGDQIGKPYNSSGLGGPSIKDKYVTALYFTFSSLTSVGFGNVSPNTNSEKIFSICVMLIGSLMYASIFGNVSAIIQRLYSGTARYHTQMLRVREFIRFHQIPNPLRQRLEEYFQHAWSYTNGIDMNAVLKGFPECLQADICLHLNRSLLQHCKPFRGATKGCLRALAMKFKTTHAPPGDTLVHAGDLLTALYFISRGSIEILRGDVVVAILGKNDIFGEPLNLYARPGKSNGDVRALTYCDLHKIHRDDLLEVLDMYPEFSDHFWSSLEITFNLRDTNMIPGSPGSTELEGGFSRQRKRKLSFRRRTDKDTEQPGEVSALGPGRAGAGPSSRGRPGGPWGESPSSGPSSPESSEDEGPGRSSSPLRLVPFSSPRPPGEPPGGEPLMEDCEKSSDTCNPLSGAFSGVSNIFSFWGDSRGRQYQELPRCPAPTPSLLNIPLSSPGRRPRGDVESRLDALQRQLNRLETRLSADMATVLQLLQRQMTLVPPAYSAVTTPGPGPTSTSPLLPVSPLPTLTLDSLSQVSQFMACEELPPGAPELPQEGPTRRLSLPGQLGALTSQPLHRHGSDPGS

| SMILES | hERG current change (%, negative = inhibition) at 1uM [%] |
| --- | --- |
| COc1c(O)ccc2c1CN1CCc3cc4c(cc3C1C2)OCO4 (stereo not shown) | 3.77 |
| Cc1ccc(S(=O)(=O)c2nc(NCc3ccc4c(c3)OCO4)sc2Cl)cc1 | 7.31 |
| COc1ccc(OC)c(N(CC(=O)Nc2cccc(C(F)(F)F)c2)S(C)(=O)=O)c1 | 9.72 |
| O=C1Nc2ccccc2C12OCCO2 | 8.92 |
| N/C(=N\OC(=O)Nc1ccc(Cl)cc1)c1ncc(C(F)(F)F)cc1Cl | 3.63 |
| COc1ccc(S(N)(=O)=O)cc1C(N)=O | 4.77 |
| CC(C)CCN(C(=O)Cc1ccc(Cl)c(Cl)c1)c1c(N)n(Cc2ccccc2)c(=O)[nH]c1=O | 6.74 |
| [O-][n+]1onc2c1CCC1N(O)C(c3ccccc3)CC21O (stereo not shown) | 13.4 |
| CCC(C(=O)N1CCOCC1)n1nc(C)c2sc3ccccc3c2c1=O (stereo not shown) | 18.9 |
| CC1(C)Cc2cccc(OCC(=O)NCCc3ccccc3)c2O1 | 11 |
| Cn1nnc2cc(C(=O)N3CCC(c4ccccc4)C3)ccc21 (stereo not shown) | -2.31 |
| C[NH+](C)CCOC(=O)c1ccc(COc2ccccc2Br)o1.[Cl-] | 4.13 |
| NS(=O)(=O)c1ccc(CCNC(=O)COC(=O)CN2C(=O)C3CCCCC3C2=O)cc1 (stereo not shown) | 2.5 |
| Cc1cccc(NC(=O)C(CC(C)C)NC(=O)C2CCC(C)CC2)n1 (stereo not shown) | -2.77 |
| Cc1cccn2c(=O)c3cc(C#N)c(=NC(=O)c4cccs4)n(CC(C)C)c3nc12 | 7.98 |
| CCCc1cc(=O)[nH]c(SCC(=O)N2CCC(C(=O)OCC)CC2)n1 | 7.32 |
| COc1ccc(NC(=O)c2cc(S(=O)(=O)N3CCCC3)ccc2C)cn1 | 14.5 |
| CC(OC(=O)c1ccc(NC(=O)CC#N)cc1)C(=O)Nc1nc(-c2ccccc2)cs1 (stereo not shown) | 0.382 |
| CC(=O)c1ccc(OCc2cc(C(=O)N3CC4C[C@@H]5CC3C[C@H](C4)C5)no2)cc1 | 10.9 |
| O=C(/C=C/c1cccs1)Nc1ccc(N2CCOCC2)c(S(=O)(=O)Nc2ccccc2Cl)c1 | 6.01 |
| COC(=O)c1ccc(Oc2c(C)oc3cc(OCc4cnn(-c5ccccc5)c4)ccc3c2=O)cc1 | 4.33 |
| O=C1C=C(c2cccc(CO)c2)C[C@@H](c2ccc(Cl)cc2)C1 | 4.24 |

| SMILES | hERG current change (%, negative = inhibition) at 1uM [%] |
| --- | --- |
| CC(=O)Nc1c(C)ccc(S(N)(=O)=O)c1C | 5.37 |
| CC(=O)Nc1ccc(SC[C@H](C)CN2CC[C@H](C(C)(C)C)CCC2=O)cc1 | 12.6 |
| CCC(C)NC(=O)CSc1nnc(-c2ccoc2C)n1CC1CCCO1 (stereo not shown) | 10.1 |
| O=C(NCC(c1ccco1)N1CCCC1)c1ccccc1F (stereo not shown) | 15 |
| O=C(O)c1ccccc1NCN1C(=O)C2CC=C(Cl)CC2C1=O (stereo not shown) | -4.01 |
| O=[N+]([O-])c1cc(C(F)(F)F)ccc1NN=C1CCCC1 | 9.06 |
| COc1ccc(CNC(=O)c2ccc(S(=O)(=O)N3CCCC3)cc2)cc1OC | 14.4 |
| CCC(C)c1ccc(OCc2ccc(C(=O)OC)o2)cc1 (stereo not shown) | 9.55 |
| Cc1nn(-c2cc(N(S(C)(=O)=O)S(C)(=O)=O)c(Cl)cc2Cl)c(=O)n1C | 14.1 |
| COc1ccc(C2NC(c3ccc(OC)cc3OC)C(C)C(=O)C2C)c(OC)c1.O=C(O)C(=O)O (stereo not shown) | 13.1 |
| COCCN(C(=S)Nc1cccc(OC)c1)C1CCN(C(C)=O)CC1 | 16.6 |
| O=C(O)c1ccc(-n2ccnc2)c([N+](=O)[O-])c1 | 21.6 |
| CN(CC(=O)Nc1cccc(F)c1)C(=O)c1cc([N+](=O)[O-])ccc1N1CCCCC1 | 17.8 |
| O=C(Cc1ccccc1)Nc1ccc(NC(=O)c2cccs2)c(Cl)c1 | 21.5 |
| COc1ccc(OC)c(S(=O)(=O)ON2C(=O)c3ccccc3C2=O)c1 | 13.1 |
| CCCC1NC(=O)NC(C)=C1C(=O)OCC (stereo not shown) | 2.69 |
| COc1ccc(CCNC(=O)CCC(=O)N2CCOc3ccc(Cl)cc32)cc1OC | -1.92 |
| O=C(NCC(c1ccc(F)cc1)N1CCOCC1)c1cccc(Br)c1 (stereo not shown) | 8.73 |
| CC(=O)Oc1ccc(N2C(=O)C3C4C=CC(C5CC45)C3C2=O)cc1[N+](=O)[O-] (stereo not shown) | -6.65 |
| O=C(CN1C(=O)NC2(CCCCC2)C1=O)N1CCc2ccccc2C1 | 3.36 |
| CC(C)CCN1C(=O)c2ccc(-c3nc4ccccc4c(=O)o3)cc2C1=O | 7.95 |
| O=S(=O)(c1ccc(Cl)s1)N1CCC2(CC1)OCCO2 | 8.78 |

| SMILES | hERG current change (%, negative = inhibition) at 1uM [%] |
| --- | --- |
| CCOC(=O)c1cc(Sc2ccccc2N)cc(C(=O)OCC)n1 | 12.2 |
| COc1ccc(-c2cc(=O)[nH][nH]2)cc1OC | 8.27 |
| O=C(CSC1c2ccccc2-c2ccccc21)N/N=C/c1ccccc1 | 23.1 |
| CS(=O)(=O)c1ccc(Cl)c(NC(=O)Cc2c(Cl)cccc2Cl)c1 | -2.12 |
| CCCCc1cc(=O)oc2cc(OCC(=O)NCCN3CCOCC3)ccc12 | 3.6 |
| Cc1cc(NC(=O)CSc2nc3ccsc3c(=O)n2CCCCC(=O)O)no1 | -3.24 |
| O=C(CC(c1ccccc1)c1cc(Cl)ccc1O)N1CCCC1 (stereo not shown) | 7.53 |
| O=C(CC(C(=O)O)c1ccc(Cl)cc1)c1ccccc1 (stereo not shown) | 8.25 |
| COc1ccc(Cc2nnc(SCC(=O)c3c(N)n(C4CC4)c(=O)[nH]c3=O)o2)cc1 | 2.58 |
| O=C(CCc1ccccc1)NNC(=O)Cc1ccccc1 | 15.4 |
| Cc1ccc(NC(=O)CCc2nnc3ccc(N4CCOCC4)nn23)cc1C | -7.73 |
| COc1cccc(-c2cn3nc(C)c(C)nc3n2)c1 | 9.08 |
| COc1ccc(NC(=O)CN(C)C(=O)c2cccc(NS(=O)(=O)c3ccc(Br)cc3)c2)cc1 | 13.8 |
| O=c1c2ccccc2cnn1-c1ccc(Br)cc1 | 9.07 |
| CCCc1nc2oc3c(NCCOCCO)ncnc3c2c2c1COC(C)(C)C2 | 0.359 |
| CC(NS(=O)(=O)c1cccc(S(=O)(=O)c2ccccc2)c1)C(=O)O (stereo not shown) | 7.71 |
| CCOC(=O)C1=C(CN2CCN(C(=O)c3ccco3)CC2)NC(=O)NC1c1ccc(OC(C)C)cc1 (stereo not shown) | -20 |
| COc1ccc(C(=O)OCC(=O)NC(=O)CCSc2ccccc2)cc1 | 6.46 |
| CC(C(=O)Nc1ccc(F)c(F)c1F)N(C)Cc1cccs1 (stereo not shown) | 13.5 |
| CC(C)OCc1c(C(=O)Nc2nccs2)oc2ccccc12 | 1.77 |
| Cc1nc2ccc(F)cc2cc1C(=O)NC(C)C | 7.69 |
| CCOc1nc(NCCN2CCOCC2)nc(Nc2ccc([N+](=O)[O-])cc2)n1 | -45.8 |

| SMILES | hERG current change (%, negative = inhibition) at 1uM [%] |
| --- | --- |
| CC(C)c1nc2cc(C(=O)N3CCNC(=O)C3c3ccc(F)cc3)ccc2o1 (stereo not shown) | 15.2 |
| O=C(O)C(Cc1ccc(O)cc1)N1C(=O)C2CCCCC2C1=O (stereo not shown) | 12.3 |
| Cc1cc(CNC(=O)C2CCC(=O)N(Cc3ccccc3F)C2)nn1C (stereo not shown) | 13.9 |
| O=C(c1ccoc1)N1CCCC(CO)(CCCc2ccccc2)C1 (stereo not shown) | 2.26 |
| Cc1cc(C)n(-c2nc(NCc3cccnc3)c3c4c(sc3n2)COC(C)(C)C4)n1 | -3.94 |
| Cc1cc(C)nc(N2CCC(C(=O)NCCc3ccc(Cl)cc3)CC2)n1 | 12 |
| CC1=NNC(=O)C1CCC(=O)N/N=C/c1ccc(C)cc1 (stereo not shown) | 3.83 |
| CCOc1cc(NC(=S)NCCOC)c(OCC)cc1NC(=O)c1cccs1 | 0.447 |
| O=C(O)c1cc(S(=O)(=O)N(Cc2ccccc2)c2ccccc2)ccc1Cl | 12.7 |
| COC(=O)N1N=C(c2ccccc2)CC1(O)C(F)(F)F (stereo not shown) | 14.8 |
| O=C(CN1C(=O)NC(Cc2c[nH]c3ccccc23)C1=O)Nc1ccccc1Br (stereo not shown) | 6.08 |
| C[N+]1(C)[C@@H]2CC(OC(=O)[C@H](CO)c3ccccc3)C[C@H]1[C@@H]1O[C@@H]12.[Br-] (stereo partly shown) | 18.5 |
| COc1ccc(S(=O)(=O)N2CCC(N3CCCCC3)CC2)cc1 | -1.84 |
| COc1ccc(OCc2cc(C(=O)N3CCCC(OC)C3)no2)c2ccccc12 (stereo not shown) | 16.6 |
| COc1ccc(CCNC(=O)CN(C2CCCCC2)S(C)(=O)=O)cc1OC | 4.82 |
| CCOC(=O)c1c(O)c2ccccc2n(-c2ccccc2)c1=O | 8.68 |
| COC(=O)C(C)Sc1nc2c(cnn2-c2ccc(Cl)cc2)c(=O)[nH]1 (stereo not shown) | 13.4 |
| COc1cc(OC)c(NC(=O)N2CCOCC2)cc1Cl | 4.51 |
| COC(=O)c1ccc(OCCCCN(C)Cc2ccccc2)cc1.O=C(O)C(=O)O | 9.79 |
| S=C(NCC1CCCO1)Nc1cccc2ccccc12 (stereo not shown) | 21.3 |
| O=C(O)c1ccc(NC2OC[C@@H](O)[C@H](O)[C@H]2O)cc1 (stereo partly shown) | 2.67 |
| c1ccc(C2=Nn3c(nnc3-c3cc(-c4ccccc4)n[nH]3)SC2)cc1 | 13 |
